Laboratory results reported in patent US20250026846A1 (JCR PHARMACEUTICALS, published 2025).
Values belong to the binder of their own block, whether it stands above or below them.

Key:
[1] = target: T1, recombinant human TfR (r human TfR: Sino Biological Inc.), hTfR extracellular region with a histidine tag at … (human, UniProt P02786); assay: BLI (Octet RED96), His-tagged TfR ECD on Ni-NTA sensor
T1 construct: Bought from Sino Biological; also called r human TfR-ECD (Histag); recombinant hTfR; not shown: histidine tag at the N-terminus

[2] = target: T2, recombinant monkey TfR (r monkey TfR: Sino Biological Inc.), crab-eating monkey TfR extracellular region with … (crab-eating monkey (Macaca fascicularis)); assay: as above
T2 construct: Bought from Sino Biological; also called r monkey TfR-ECD (Histag); not shown: histidine tag at the N-terminus
T2 chain: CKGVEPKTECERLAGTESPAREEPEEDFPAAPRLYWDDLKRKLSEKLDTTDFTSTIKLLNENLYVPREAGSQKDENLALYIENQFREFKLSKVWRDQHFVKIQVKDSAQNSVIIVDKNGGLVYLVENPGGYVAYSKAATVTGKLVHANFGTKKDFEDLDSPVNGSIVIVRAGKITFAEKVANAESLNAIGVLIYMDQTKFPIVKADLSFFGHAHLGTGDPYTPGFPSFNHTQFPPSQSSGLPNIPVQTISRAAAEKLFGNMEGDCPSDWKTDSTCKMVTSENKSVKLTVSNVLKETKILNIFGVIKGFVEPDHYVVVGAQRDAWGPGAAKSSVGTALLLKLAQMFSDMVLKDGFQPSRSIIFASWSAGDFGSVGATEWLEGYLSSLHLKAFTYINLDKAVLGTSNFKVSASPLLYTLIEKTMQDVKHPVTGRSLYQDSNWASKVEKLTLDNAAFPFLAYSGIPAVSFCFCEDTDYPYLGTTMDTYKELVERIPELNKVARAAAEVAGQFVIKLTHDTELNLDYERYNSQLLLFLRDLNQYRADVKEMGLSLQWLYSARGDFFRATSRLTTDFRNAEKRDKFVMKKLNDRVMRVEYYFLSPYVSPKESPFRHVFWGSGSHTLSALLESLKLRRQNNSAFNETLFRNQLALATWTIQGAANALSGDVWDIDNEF

Kd [1]: < 1 pM | koff [1]: < 1e-07 s⁻¹ | kon [1]: 576000 M⁻¹ s⁻¹ | Kd [2]: < 1 pM | koff [2]: < 1e-07 s⁻¹ | kon [2]: 301000 M⁻¹ s⁻¹
B1: IgG4 GS10-AC (other)
light: DIVMTQTPLSLSVTPGQPASISCRSSQSLVHSNGNTYLHWYLQKPGQSPQLLIYKVSNRFSGVPDRFSGSGSGTDFTLKISRVEAEDVGVYYCSQSTHVPWTFGQGTKVEIKRTVAAPSVFIFPPSDEQLKSGTASVVCLLNNFYPREAKVQWKVDNALQSGNSQESVTEQDSKDSTYSLSSTLTLSKADYEKHKVYACEVTHQGLSSPVTKSFNRGEC
heavy: EVQLVQSGAEVKKPGESLKISCKGSGYSFMNYWLGWVRQMPGKGLEWMGDIYPGGDYPTYSEKFKVQVTISADKSISTAYLQLSSLKASDTAMYYCARSGNYDEVAYWGQGTLVTVSSASTKGPSVFPLAPCSRSTSESTAALGCLVKDYFPEPVTVSWNSGALTSGVHTFPAVLQSSGLYSLSSVVTVPSSSLGTKTYTCNVDHKPSNTKVDKRV[sequence of human IgG4 Fc with S228P L445P (EU numbers) omitted]GGGGSGGGGSGGGGSGGGGSGGGGSGGGGSGGGGSGGGGSGGGGSGGGGSQHAPPWTEDCRKSTYPPSGPTYRGAVPWYTINLDLPPYKRWHELMLDKAPVLKVIVNSLKNMINTFVPSGKIMQVVDEKLPGLLGNFPGPFEEEMKGIAAVTDIPLGEIISFNIFYELFTICTSIVAEDKKGHLIHGRNMDFGVFLGWNINNDTWVITEQLKPLTVNLDFQRNNKTVFKASSFAGYVGMLTGFKPGLFSLTLNERFSINGGYLGILEWILGKKDVMWIGFLTRTVLENSTSYEEAKNLLTKTKILAPAYFILGGNQSGEGCVITRDRKESLDVYELDAKQGRWYVVQTNYDRWKHPFFLDDRRTPAKMCLNRTSQENISFETMYDVLSTKPVLNKLTVYTTLIDVTKGQFETYLRDCPDPCIGW
notes: also called IgG4 HC-GS10-AC

Kd [1]: < 1 pM | koff [1]: < 1e-07 s⁻¹ | kon [1]: 466000 M⁻¹ s⁻¹ | Kd [2]: < 1 pM | koff [2]: < 1e-07 s⁻¹ | kon [2]: 246000 M⁻¹ s⁻¹
B2: IgG4 GS10-FUCA1 (other)
light: B1 light
heavy: EVQLVQSGAEVKKPGESLKISCKGSGYSFMNYWLGWVRQMPGKGLEWMGDIYPGGDYPTYSEKFKVQVTISADKSISTAYLQLSSLKASDTAMYYCARSGNYDEVAYWGQGTLVTVSSASTKGPSVFPLAPCSRSTSESTAALGCLVKDYFPEPVTVSWNSGALTSGVHTFPAVLQSSGLYSLSSVVTVPSSSLGTKTYTCNVDHKPSNTKVDKRV[sequence of human IgG4 Fc with S228P L445P (EU numbers) omitted]GGGGSGGGGSGGGGSGGGGSGGGGSGGGGSGGGGSGGGGSGGGGSGGGGSQPPRRYTPDWPSLDSRPLPAWFDEAKFGVFIHWGVFSVPAWGSEWFWWHWQGEGRPQYQRFMRDNYPPGFSYADFGPQFTARFFHPEEWADLFQAAGAKYVVLTTKHHEGFTNWPSPVSWNWNSKDVGPHRDLVGELGTALRKRNIRYGLYHSLLEWFHPLYLLDKKNGFKTQHFVSAKTMPELYDLVNSYKPDLIWSDGEWECPDTYWNSTNFLSWLYNDSPVKDEVVVNDRWGQNCSCHHGGYYNCEDKFKPQSLPDHKWEMCTSIDKFSWGYRRDMALSDVTEESEIISELVQTVSLGGNYLLNIGPTKDGLIVPIFQERLLAVGKWLSINGEAIYASKPWRVQWEKNTTSVWYTSKGSAVYAIFLHWPENGVLNLESPITTSTTKITMLGIQGDLKWSTDPDKGLFISLPQLPPSAVPAEFAWTIKLTGVK
notes: also called IgG4 HC-GS10-FUCA1
